Test results published in the supplement of paper PMC10369915.
This is one part of the list. Cut-off read from the data, not from the text of the source: active = 3.2 or more and inactive = the rest. Only a few entries rise above the background.

B1: MDM4_HUMAN_55 (peptide)
chain: TVKEVMHYLGQYIMV
B2: MDM4_HUMAN_55_YA (peptide)
chain: TVKEVMHYLGQAIMV
B3: MDM4_HUMAN_99 (peptide)
chain: VKDPSPLYDMLRKNL
B4: MED28_HUMAN_64 (peptide)
chain: ASLVSQDYVNGTDQE
B5: MELK_HUMAN_163 (peptide)
chain: KPKGNKDYHLQTCCG
B6: MELK_HUMAN_367 (peptide)
chain: VTASDKNYVAGLIDY
B7: MELK_HUMAN_367_YA (peptide)
chain: VTASDKNYVAGLIDA
B8: MELK_HUMAN_438 (peptide)
chain: SAVKNEEYFMFPEPK
B9: MERTK_HUMAN_753 (peptide)
chain: KKIYSGDYYRQGRIA
B10: 41_HUMAN_222 (peptide)
chain: SLLDDTVYECVVEKH
B11: MET_HUMAN_1349_YA (peptide)
chain: STFIGEHYVHVNATA
B12: MFA3L_HUMAN_287 (peptide)
chain: AADRDEVYTIPNSLK
B13: MGRN1_HUMAN_411 (peptide)
chain: AIPSAPLYEEITYSG
B14: MILR1_HUMAN_313 (peptide)
chain: KHSQELQYATPVFQE
B15: MILR1_HUMAN_338_YA (peptide)
chain: SAKSGAVYSELNFGG
B16: MK08_HUMAN_185 (peptide)
chain: TSFMMTPYVVTRYYR
B17: MK08_HUMAN_185_YA (peptide)
chain: TSFMMTPYVVTRAAR
B18: MK11_HUMAN_182 (peptide)
chain: ADEEMTGYVATRWYR
B19: MK11_HUMAN_182_YA (peptide)
chain: ADEEMTGYVATRWAR

The binders below were run against SHP2 C-SH2 domain E139D (assay: enrichment score (SH2-bound / input frequency) (ratio); bacterial display of known human phosphotyrosine sites (pTyr-Var adds point mutants) read by sequencing; higher = stronger binding; tyrosines were phosphorylated by kinases first). Conditions: peptide library: Human pTyr.
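Note: displayed peptides selected on beads carrying the immobilized SH2 domain, with library peptides lacking any tyrosine serving as negative controls.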

Binder | enrichment score
B1 | inactive: 2.17
B2 | inactive: 1.45
B3 | inactive: 0.993
B4 | inactive: 0.602
B5 | inactive: 1.24
B6 | inactive: 0.66
B7 | inactive: 0.677
B8 | inactive: 0.673
B9 | inactive: 1.85
B10 | inactive: 1.14
B11 | inactive: 0.86
B12 | inactive: 0.668
B13 | inactive: 0.587
B14 | inactive: 1.08
B15 | inactive: 0.869
B16 | inactive: 1.72
B17 | inactive: 1.24
B18 | inactive: 1.05
B19 | inactive: 0.892

What follows are binders tested against SHP2 C-SH2 domain wild-type in the same assay as above. Conditions: peptide library: Human pTyr.

Binder | enrichment score
B1 | inactive: 2.39
B2 | inactive: 1.67
B3 | inactive: 1
B4 | inactive: 0.65
B5 | inactive: 1.21
B6 | inactive: 0.601
B7 | inactive: 0.703
B8 | inactive: 1.03
B9 | inactive: 1.86
B10 | inactive: 0.978
B11 | inactive: 0.794
B12 | inactive: 0.562
B13 | inactive: 0.604
B14 | inactive: 1.55
B15 | inactive: 1.33
B16 | inactive: 0.969
B17 | inactive: 0.834
B18 | inactive: 0.846
B19 | inactive: 0.695

These binders were tested against SHP2 N-SH2 domain L43F in the same assay as above. Conditions: peptide library: Human pTyr.

Binder | enrichment score
B1 | inactive: 2.39
B2 | inactive: 1.58
B3 | inactive: 1.2
B4 | inactive: 0.781
B5 | inactive: 1.13
B6 | inactive: 0.675
B7 | inactive: 0.579
B8 | inactive: 0.724
B9 | inactive: 1.59
B10 | inactive: 1.08
B11 | inactive: 0.607
B12 | inactive: 0.476
B13 | inactive: 0.792
B14 | active: 18.4
B15 | inactive: 3
B16 | inactive: 1.45
B17 | inactive: 1.21
B18 | inactive: 1
B19 | inactive: 0.758

Each binder was assayed against SHP2 N-SH2 domain T42A in the same assay as above. Conditions: peptide library: Human pTyr.

Binder | enrichment score
B1 | inactive: 2.44
B2 | inactive: 1.19
B3 | inactive: 1.04
B4 | inactive: 0.692
B5 | inactive: 1.15
B6 | inactive: 0.59
B7 | inactive: 0.725
B8 | inactive: 1
B9 | inactive: 1.4
B10 | inactive: 1.07
B11 | inactive: 0.639
B12 | inactive: 0.604
B13 | inactive: 0.562
B14 | active: 6.24
B15 | active: 5.55
B16 | inactive: 1.14
B17 | inactive: 1.46
B18 | inactive: 0.86
B19 | inactive: 0.75

What follows are binders tested against SHP2 N-SH2 domain T52S in the same assay as above. Conditions: peptide library: Human pTyr.

Binder | enrichment score
B1 | inactive: 2.24
B2 | inactive: 1.89
B3 | inactive: 1.05
B4 | inactive: 0.629
B5 | inactive: 1.31
B6 | inactive: 0.581
B7 | inactive: 0.525
B8 | inactive: 0.934
B9 | inactive: 1.84
B10 | inactive: 1.26
B11 | inactive: 0.72
B12 | inactive: 0.723
B13 | inactive: 0.631
B14 | active: 10.6
B15 | inactive: 1.91
B16 | inactive: 1.27
B17 | inactive: 1.36
B18 | inactive: 0.893
B19 | inactive: 0.829

Each binder was assayed against SHP2 N-SH2 domain wild-type in the same assay as above. Conditions: peptide library: Human pTyr.

Binder | enrichment score
B1 | active: 3.33
B2 | inactive: 1.99
B3 | inactive: 1.07
B4 | inactive: 0.703
B5 | inactive: 2.06
B6 | inactive: 0.537
B7 | inactive: 0.63
B8 | inactive: 0.819
B9 | inactive: 2.32
B10 | inactive: 1.11
B11 | inactive: 0.675
B12 | inactive: 0.91
B13 | inactive: 0.659
B14 | inactive: 2.35
B15 | inactive: 0.697
B16 | inactive: 1.13
B17 | inactive: 0.819
B18 | inactive: 0.981
B19 | inactive: 0.933
